Experimental data from PubChem BioAssay AID1347073 (National Center for Advancing Translational Sciences (NCATS), 2019).
Hit rate of the full screen: of about 45,000 compounds, about 200 (0.44%) were called active. Not shown: some 7% with an inconclusive outcome. Calls come from the whole dose curve; as a rule, active = well fitted activation curve with a large enough effect; inconclusive = small, poorly fitted or top-dose-only effect; inactive = no such curve, though single readings can be large or run the other way. This is one part of the list.

Test: qHTS of TDP-43 Inhibitors: NCGC Sytravon Library Screen; note: 0% is about no effect; nearly all actives have a fitted effect of over 55% in size
Details: yeast TDP-43 toxicity rescue, BacTiter-Glo growth, 24 h; series mostly up to 46.1 µM; growth rescue (activation): at the top concentration
Procedure, shortened: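 TDP-43-expressing yeast, pregrown in raffinose, seeded at OD600 0.02 in galactose medium with compound for 24 hr at 30 deg C. Growth read by BacTiter-Glo luminescence, so rescue of toxicity appears as activation.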

Compound | growth rescue (activation)
Clc1cc(-c2ccc(/C=N/n3cnnc3)o2)ccc1Br | inactive: -1.78%
O=C(COc1ccc2c(c1)OCO2)Nc1ccc2c(c1)oc1ccccc12 | inactive: -9.08%
O=C(NCCC(F)(F)F)C1Cc2c(-c3ccccc3Oc3ccccc3)ccnc2O1 (stereo not drawn) | inactive: 24.7%
CC(C)(C)C(=O)Cn1c(=O)n(CCCCCC(=O)NCc2ccc3c(c2)OCO3)c(=O)c2sccc21 | inactive: 3.9%
Cc1cc(Oc2nc3c(C)cccn3c(=O)c2/C=C(\C#N)S(=O)(=O)c2ccccc2)ccc1Cl | inactive: 6.2%
Cc1cc(C)c(OCC(=O)N(Cc2ccc(N(C)C)cc2)C2CCS(=O)(=O)C2)c(C)c1 (stereo not drawn) | inactive: -14.3%
Cc1c(NC(=O)Nc2cccc(C(F)(F)F)c2)c(=O)n(-c2ccccc2)n1C | inactive: 15.4%
CSc1ncnc2sc(C)c(C)c12 | inactive: -2.13%
Cc1nc2ccc(NC(=S)NCc3ccccc3)cc2nc1C | inactive: 12.3%
Cc1ccccc1SCC(=O)NCCCn1ccnc1 | inactive: 5.44%
COCCNC(=O)CSc1cc(=O)n(C)c2cc(Cl)ccc12 | inactive: 3.91%
CN(C)CCOC(=O)NCC12CC3CC(CC(C3)C1)C2 | inactive: 14.3%
COCCN1C[C@@H](CO)O[C@@H](n2cnc3c(NCC(C)C)ncnc32)C1 | inactive: 2.98%
CCC(=O)Nc1ccc(NC(=O)/C=C/c2ccc(Cl)cc2)cc1 | inactive: -0.295%
CC(Cc1cccs1)NC(=O)c1cccs1 (stereo not drawn) | inactive: 6.97%
CCc1ccc(C(O)c2ncc(-c3ccccc3Cl)[nH]2)cc1 (stereo not drawn) | inactive: 6.73%
CNc1nc(NCCCN2CCCC2=O)c2sccc2n1 | inactive: 17%
Cc1ccc(C)c(NC(=S)N2CCC(NC(=O)c3cccc(F)c3)CC2)c1 | inactive: 10.2%
Cc1ccc2[nH]c(C)c(CCNC(=O)c3cc4cc([N+](=O)[O-])ccc4oc3=O)c2c1 | inactive: -3.58%
O=C(N/N=C1\CC2CC=CC12)c1ccc(O)cc1 (stereo not drawn) | inactive: -13.2%
S=C(NCc1cccnc1)Nc1cccc2ccccc12 | inactive: 6.82%
COc1ccccc1OCc1ccc(C(=O)N2CCCCC2)o1 | inactive: 12%

Compound | growth rescue (activation)
Cc1ccc2oc(-c3cc(NC(=O)c4ncn[nH]4)ccc3O)nc2c1 | inactive: 23.3%
Cc1ccc(S(=O)(=O)NCCC(=O)OCC(=O)Nc2ccccc2Cl)cc1 | inactive: 3.55%
O=C(CSc1ccc([N+](=O)[O-])cn1)Nc1ccc(N2CCOCC2)cc1 | inactive: 4.15%
Cc1cc(C(=O)Cn2ncc(Cl)c(Cl)c2=O)c(C)n1CC(F)(F)F | inactive: -5.78%
O=C(COC(=O)Cn1ccc(=O)[nH]c1=O)Nc1ccc(F)cc1 | inactive: 21.9%
COc1ccc(C=O)cc1COc1ccccc1F | inactive: 13.9%
COc1ccc(CC(=O)OCC(=O)NC2CCCC(C)C2C)cc1 (stereo not drawn) | inactive: 12%
Cc1ccc(CN2CC(C(=O)Nc3nnc(SCc4c(Cl)cccc4Cl)s3)CC2=O)cc1 (stereo not drawn) | inactive: 1.44%
O=C(NCc1cccc(C(F)(F)F)c1)c1ccc2sc([C@@H]3O[C@H](CO)[C@@H](O)[C@H]3O)nc2c1 | inactive: 15.2%
Cc1ccccc1-c1cc2nc(NCCN3CCNC3=O)n(C)c(=O)c2s1 | inactive: -11.9%
CC1(C(=O)CSc2nc3ccccc3s2)CCC(=O)O1 (stereo not drawn) | inactive: 18.1%
CCOC(=O)c1c(C)[nH]c(C2=NNC(=NC(C)COC)SC2)c1C (stereo not drawn) | inactive: 12.3%
CC1(C(=O)NCc2ccncc2)Cc2c(-c3cccc(C(F)(F)F)c3)ccnc2O1 (stereo not drawn) | inactive: 14.2%
CC(C)c1nnc(NC(=O)c2nc(S(=O)(=O)Cc3ccc(F)cc3)ncc2Cl)s1 | inactive: 11.5%
CC(Sc1ccc2ccccc2c1)C(=O)NC(N)=O (stereo not drawn) | inactive: 12.4%
COC(=O)c1ccc(CSc2nc3ccccc3c(=O)n2N)cc1 | inactive: 15.7%
O=[N+]([O-])c1cccc(Nc2c3ccccc3nc3ccccc23)c1 | inactive: 24.7%
CCCCCCCCCCn1c2c(c(=N)c3c1CCC3)CCC2 | inactive: -88.7%
O=C(CC1C(=O)NCCN1Cc1ccc(-c2ccccc2)cc1)NCC1CCOCC1 (stereo not drawn) | inactive: 10.3%
Cc1ccc(NC(=O)COC(=O)c2cc(Cl)ccc2[N+](=O)[O-])c(C)c1 | inactive: 20.5%
COc1cc(-c2cc(C(=O)Nc3c(Cl)cc(Cl)cc3Cl)c3ccccc3n2)cc(OC)c1OC | inactive: 0.435%
O=C(O)C1CCN1C1CCCCC1 (stereo not drawn) | inactive: -2.19%

Compound | growth rescue (activation)
Cc1ccc(CN2CCN(/N=C/c3ccccc3)CC2)cc1 | inactive: 5.83%
CC(=O)Nc1ccc(C=NNC(=O)c2ccc(NS(=O)(=O)c3cccs3)cc2)cc1 | inactive: 15.5%
COc1ccc(C2SCC(=O)N2CCCN(C)C)cc1 (stereo not drawn) | inactive: 18%
Cc1nnc(C)n1N | inactive: -6.43%
Cn1cccc1C(=O)OCc1ccc(F)cc1 | inactive: -5.81%
COc1ccc(-c2cc(C(=O)Nc3ccccc3O)c3ccccc3n2)cc1OC | inactive: -2.42%
FC(F)(F)c1ccc(C2NCCc3sccc32)cc1 (stereo not drawn) | inactive: -10.2%
Cc1ccc(NC(=S)NCCN(C2CCCCC2)C2CCCC2)cc1C | inactive: -8.25%
CCN(CC)S(=O)(=O)c1cc(NC(=O)C(C)Nc2ccccc2N2CCOCC2)ccc1C (stereo not drawn) | inactive: -3.73%
CC(=O)c1c(C)[nH]c(C(=O)Nc2ccc(Cl)c(S(=O)(=O)N3CCOCC3)c2)c1C | inactive: -12.5%
CC(C)Oc1ccc(C(=O)Nc2ccc(N3CCCCC3)cc2)cc1 | inactive: -25.5%
CCOc1cccc(CN2CCCC(N3CCc4cc(OC)c(OC)cc4C3)C2)c1O (stereo not drawn) | inactive: 1.77%
COc1ccc(C2=NOC(C(=O)NCc3cccnc3)C2)cc1OC (stereo not drawn) | inactive: -0.899%
Cc1cc(C)cc(C(=O)NCC(=O)OCC(=O)N2CCN(S(=O)(=O)c3ccc4ccccc4c3)CC2)c1 | inactive: -7.02%
NC(=O)N(CCC(=O)O)c1ccccc1 | inactive: 10.3%
COc1ccc(NC(=O)CSc2ncnc3sc(C)cc23)cc1 | inactive: 7.45%
O=C1Nc2ncccc2OC1CCCl (stereo not drawn) | inactive: -13.6%
NC(=O)CN1C(=O)C2C3c4ccccc4C(c4ccccc43)C2C1=O (stereo not drawn) | inactive: 12.6%
O=[N+]([O-])c1ccc2nnn(O)c2c1 | inactive: -8.07%
CC(=O)Nc1ccc(C2NC(=S)N(c3ccccc3C(F)(F)F)C(C)=C2C(=O)N2CCOCC2)cc1 (stereo not drawn) | inactive: 5.26%
COc1ccc2[nH]c(=O)c(CN(c3ccc(C)c(C)c3)S(C)(=O)=O)cc2c1 | inactive: -19.8%
O=C(/C=C/c1ccc(Br)cc1)Nc1ccc(S(=O)(=O)Nc2ncccn2)cc1 | inactive: 6.84%

Compound | growth rescue (activation)
CCCn1c(SCC(=O)c2cc(C)ccc2C)n[nH]c1=O | inactive: 10.2%
CCOc1ccc(N2C(=O)CC(NCCNc3ccc([N+](=O)[O-])cn3)C2=O)cc1 (stereo not drawn) | inactive: 10.3%
O=C(CCN1C(=O)c2cccc3cccc(c23)C1=O)Nc1ccon1 | inactive: 10.3%
COC(=O)c1ccc(NC(=O)NCCCl)cc1 | inactive: 5.82%
COc1ccc(CNC(=O)CN(Cc2ccccc2OC)C(=O)c2csnn2)cc1 | inactive: -7.78%
Cc1ccc(N(C(=O)Cn2nnc(-c3ccc(F)cc3)n2)C(C(=O)NC(C)(C)C)c2ccncc2)cc1 (stereo not drawn) | inactive: -13.3%
CCOc1ccc(NC(=O)C2CCN(C(=O)C3CC(=O)N(c4ccc(C)cc4)C3)CC2)cc1 (stereo not drawn) | inactive: 9.96%
O=C(NC(=S)Nc1ccc2[nH]c(=O)[nH]c2c1)c1ccccc1[N+](=O)[O-] | inactive: 4.04%
CC(=O)N1c2ccc(C)cc2C(c2ccccc2)CC1C (stereo not drawn) | inactive: 18.9%
O=C1CN(C(=O)COc2ccc(Br)cc2F)c2ccccc2N1 | inactive: 14.6%
COc1cc(OC)cc(C(=O)N[C@H](C(=O)NCc2ccccc2)C(C)C)c1 | inactive: -18.9%
COc1cccc(C(=O)N2CCC(CCC(=O)Nc3cccc(C)c3)CC2)c1 | inactive: 7.78%
CCOC(=O)C1CCN(C(=O)COc2ccc(S(=O)(=O)N3CCOCC3)cc2C)CC1 | inactive: 8.27%
COC(=O)C1CN(S(=O)(=O)c2cc(OC)ccc2OC)CCS1 (stereo not drawn) | inactive: -12%
O=C1NC2(NN1c1ccccc1)C1CC3CC(C1)CC2C3 (stereo not drawn) | inactive: 16.1%
CN(C)c1ccc(C=C2C(=O)OC(C)(C)OC2=O)cc1 | inactive: 19.8%
CCN(CC)S(=O)(=O)c1cccc(C(=O)N/N=C/c2ccccc2OCC(=O)O)c1 | inactive: 2.2%
COCCN1C(=O)c2ccc(C(=O)Nc3cccnc3)cc2C1=O | inactive: 19.6%
CCOC(=O)C1CCCN(S(=O)(=O)c2cc(Br)cc3c2N(C(=O)CC)CC3)C1 (stereo not drawn) | inactive: 5.56%
CN(C)/C=N/C(=S)Nc1ccc(F)cc1 | inactive: 30.3%
CC(C)Oc1cccc(C(=O)C2CCCN(Cc3cnc(N4CCCC4)s3)C2)c1 (stereo not drawn) | inactive: -1.69%
Cc1ccc(C(OCC(C)(C)C[N+](C)(C)C)c2ccccc2)cc1 (stereo not drawn) | inactive: -8.39%

Compound | growth rescue (activation)
COc1ccc(CNC(=O)CN(C(=O)c2csnn2)c2cccc(F)c2)cc1 | inactive: -4.1%
O=C(CSc1nc2ccccc2c(=O)n1-c1ccc(F)cc1F)c1c[nH]c2ccccc12 | inactive: 2.36%
CC(c1ccccc1)N1CCc2[nH]c(=S)[nH]c(=O)c2C1 (stereo not drawn) | inactive: 1.32%
O=C(NC1CCCc2ccccc21)c1ccc([N+](=O)[O-])cc1 (stereo not drawn) | inactive: -10.7%
COCCn1c(N)c(N(Cc2ccccc2)C(=O)C2CCCCC2)c(=O)[nH]c1=O | inactive: 8.62%
CC1CN(C(=O)COC(=O)c2ccc3ncsc3c2)CC(C)O1 (stereo not drawn) | inactive: -10.2%
Cc1ccc(-c2c3c(=O)n(C)c(=O)n(C)c3cn2Cc2ccccn2)cc1 | inactive: -46.9%
CCOc1ccc(NC(=O)CSc2cn[nH]n2)cc1 | inactive: 4.73%
CC(NC(=O)COC(=O)/C=C/c1cccc(F)c1)c1ccccc1 (stereo not drawn) | inactive: 28.9%
CCC(C)(C)NC(=O)C(c1ccc(C)cc1)N(CC1CCCO1)C(=O)CCC(=O)Nc1ccccn1 (stereo not drawn) | inactive: -6.87%
COc1cc(CC(=O)Nc2nc(-c3ccccc3)c(C(C)=O)s2)cc(OC)c1OC | inactive: -7.18%
COc1ccc(-c2cc(C(F)(F)F)nc(N)n2)cc1 | inactive: 18.9%
Cc1ccc2cc(C#N)c(SCC(=O)NNC(=O)Cc3ccccc3)nc2c1 | inactive: -19.1%
COC(=O)c1[nH]c2cccc(OC)c2c1NC(=O)CN1CCN(c2cccc(OC)c2)C(C)C1 (stereo not drawn) | inactive: 4.09%
C=CCNC(=S)Nc1ccc2nc(C)oc2c1 | inactive: 1.25%
CCc1nc2ccc(C(=O)N3CCC(O)(Cc4ccccc4)CC3)cn2c1N(C)C(=O)Cc1ccccc1 | inactive: 23.8%
Cc1ccc(Sc2c(C)nn(-c3ccccc3)c2OC(=O)CC(C)C)cc1 | inactive: -70.7%
CC1(C)CC(=O)C2=C(C1)Nc1ccccc1NC2c1cccnc1 (stereo not drawn) | inactive: 13%
O=C(COc1ccc(/C=N/NS(=O)(=O)c2ccccc2)cc1)Nc1cccc(Cl)c1 | inactive: 20.2%
CCC(Sc1nncn1C)C(=O)Nc1cc(C)on1 (stereo not drawn) | inactive: 0.284%
